Source: PMC12136788
Some of the results follow.

T1: UNK ZnF1-6 (called full-length) (human, UniProt Q9C0B0 30-357)
T1 sequence: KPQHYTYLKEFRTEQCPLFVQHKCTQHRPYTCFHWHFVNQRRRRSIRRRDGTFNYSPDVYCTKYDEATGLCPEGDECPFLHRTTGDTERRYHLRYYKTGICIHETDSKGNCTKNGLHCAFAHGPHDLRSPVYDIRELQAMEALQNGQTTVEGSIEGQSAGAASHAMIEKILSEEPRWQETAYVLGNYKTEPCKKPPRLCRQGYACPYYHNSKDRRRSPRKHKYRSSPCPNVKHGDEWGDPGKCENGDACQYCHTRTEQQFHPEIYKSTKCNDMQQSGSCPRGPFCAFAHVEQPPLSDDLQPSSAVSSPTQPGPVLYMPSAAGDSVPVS

B1: chr2:53865134:53865235:-|3pUTR|ENSG00000068878|unk|total|mutant (ssRNA)
RNA: GGGAGUUCUACAGUCCGACGAUCGUCCUGUCAUUUCAUUCAUCUCAAAUUAUUUUGAAUUCUUCCCAAAUGGCUGCUGGAUUCCGGUGGUAACCGGGGCUGUGGGCCAUAAAUCUGAAGCCUUGAGAACCUUGGGUCUGGAGACAACAGAGGAUUGAGCAUCA
B2: ENSG00000130816:stop:overlap|stop_codon|ENSG00000130816|stop_codon|NA|stop_codon (ssRNA)
RNA: GGGAGUUCUACAGUCCGACGAUCUGGCCAAAGCCCGAGAGAGUGCCUCAGCUAAAAUAAAGGAGGAGGAAGCUGCUAAGGACUAGUUCUGCCCUCCCGUCACCCCUGUUUCUGGCACCAGGAAUCCCCAACAUGCACUGAUGUCAACAGAGGAUUGAGCAUCA
B3: chr1:225789428:225789553:+|3pUTR|ENSG00000143742|unk|FALSE|unique (ssRNA)
RNA: GGGAGUUCUACAGUCCGACGAUCUUAGAGAAAGUGUUGGGACAGAAAGUACUUUAUGUAACUAAGUGGGCUGUUCAGAAGCUUAGAGGUCAUUUUUUGUAAUUUUCUUUUUAAUUACUUUAGAGAGCUAGGGAUGCAAAUGUUCAACAGAGGAUUGAGCAUCA
B4: chr11:104891169:104891404:-|CDS|ENSG00000204403|control|control|control (ssRNA)
RNA: GGGAGUUCUACAGUCCGACGAUCUUUGCUGCUCACCCAGAGCACCAGUCCUCAGACAGCACAUUCCUGGUGUUUAUGUCACAUAGCAUCCUGAAUGGAAUCUGUGGGACCAAGCACUGGGAUCAAGAGCCAGAUGUUCUUCACCAACAGAGGAUUGAGCAUCA
B5: ENSG00000107863:be:win_501|CDS|ENSG00000107863|bound_else_gene|NA|bound_elsewhere_windowed (ssRNA)
RNA: GGGAGUUCUACAGUCCGACGAUCGUUUACAAAGGAUGUCACAGCACUGGCAUAUUCUCAAGAUGCCUACCUGAAAGGCAACGAAGCUUAUAGCGGCAAUGCCCGCAAUAUACCUGAACCUCCACCAAUCUGCUAUCCCUGGCUCAACAGAGGAUUGAGCAUCA
B6: ENSG00000136451:be:win_3251|3pUTR|ENSG00000136451|bound_else_gene|NA|bound_elsewhere_windowed (ssRNA)
RNA: GGGAGUUCUACAGUCCGACGAUCCUUAGUGUAAAAUAAUUUUAUAAAUGAUCUUUUGUACUUUAGGACAUUAAAUUGUACAACUUUUGUAUAUAUAAAAGCUUAGGAACUUUCUGUUUAGCAGGAAGGCAACACAUUCCUACACAACAGAGGAUUGAGCAUCA
B7: chr17:3662948:3663056:-|3pUTR|ENSG00000213977|unk|FALSE|unique (ssRNA)
RNA: GGGAGUUCUACAGUCCGACGAUCAGUUUGAUACAAAAUGUUUUUAUCGUACUCUUUGGAGAUGCCCAUUCUACUUUUGAAUUUAGCUUUUACUAAUUCGCAUCUGGAAGCUCAGCAAGUGCACAAGCCUUACUUUGGUUACCGCAACAGAGGAUUGAGCAUCA
B8: chr10:128098031:128098192:-|3pUTR|ENSG00000148773|msi1|FALSE|unique (ssRNA)
RNA: GGGAGUUCUACAGUCCGACGAUCCAUCUUCAUUUACUUUCCACUUUGCCCCCUGUCCUCUCUGUGUUCCCCAAAUCAGAGAAUAGCCCGCCAUCCCCCAGGUCACCUGUCUGGAUUCCUCCCCAUUCACCCACCUUGCCAGGUCAACAGAGGAUUGAGCAUCA
B9: ENSG00000104643:stop:overlap|stop_codon|ENSG00000104643|stop_codon|NA|stop_codon (ssRNA)
RNA: GGGAGUUCUACAGUCCGACGAUCAUAUUCCUGGAAUGGAGGAAUGCUUGAAUAUAGCCAGUUCCAUUGAGAAUCCCUCCUGCUAGCCCUCCACCCUUCCCCGAAUACAUCUGGACACGAUUUGCAUUGUCUACUCUGGACUCCCAACAGAGGAUUGAGCAUCA
B10: chr14:106324253:106324560:-|CDS|ENSG00000211952|control|control|control (ssRNA)
RNA: GGGAGUUCUACAGUCCGACGAUCCUAUUAUAGUGGGAGCACCUACUACAACCCGUCCCUCAAGAGUCGAGUCACCAUGUCAGUAGACACGUCCAAGAACCAGUUCUCCCUGAAGCUGAGCUCUGUGACCGCCGUGGACACGGCCAACAGAGGAUUGAGCAUCA
B11: chr16:70160055:70160156:+|3pUTR|ENSG00000090857|msi1|total|mutant (ssRNA)
RNA: GGGAGUUCUACAGUCCGACGAUCUUGUGCUCACCACGAAGGAUGGUCUCUGCCUUCUCUUGUCGGUGUAUGCCAUCUGAACCCCGGAACACAAAGUAUAUUGGCCUCAAACGGAGACCCAGGGUUGCCAGUUUUCCGUGGGCCCAACAGAGGAUUGAGCAUCA
B12: chr11:107429260:107429366:-|CDS|ENSG00000152404|unk|FALSE|unique (ssRNA)
RNA: GGGAGUUCUACAGUCCGACGAUCGAGGAAACCCACAUAUUCAGAUAAAGCACAAAAUUGUCAAGAAAGUAGAGAAUCAGACUUAGUAAAAUAUGGUAACAGUUCAAGGGAUAGAUAUGCUACAACAGAUACUGCAAAAAAUAGCAACAGAGGAUUGAGCAUCA
B13: chr3:45095346:45095568:-|CDS|ENSG00000163814|control|control|control (ssRNA)
RNA: GGGAGUUCUACAGUCCGACGAUCAAACAGAGCCGCAAGUUUGUCCCUGGCUGUUUCGUGUGUCUAGAAUCUCGGACCUGCAGUAGCAACCUCACCCUGACAUCUGGCUCCAAACACAAAAUCUCCUUCCUUUGUGAUGAUCUGCAACAGAGGAUUGAGCAUCA
B14: chr10:87814449:87814585:-|CDS|ENSG00000138138|unk|FALSE|bound_elsewhere (ssRNA)
RNA: GGGAGUUCUACAGUCCGACGAUCUUUAAUUUUCCGUUUGACAAUAUUUGGUGCAGUGACAUACUUUACUAUCAAAUGGAUGGUAGAUGCAAUUGAUCCAACCAGAAAGCAAAAAGUAGAAGCUCAGAAACAGGUAUGAUUGAACAACAGAGGAUUGAGCAUCA
B15: chr17:58495858:58495960:-|CDS|ENSG00000108389|unk|FALSE|unique (ssRNA)
RNA: GGGAGUUCUACAGUCCGACGAUCAGAAGAGACUAAGGGACCAGCUCCAGACCCUUCUGCCCAGGAUGAGCUGGGUAGGACUUUAGAUGGCAUAGGGGAGCCACCUGAACAUUGUCCUGAAACAGAAGCUGUCAGUGCACUCUCCAACAGAGGAUUGAGCAUCA
B16: chr6:53267885:53267986:-|3pUTR|ENSG00000012660|msi1_unk|FALSE|overlapping (ssRNA)
RNA: GGGAGUUCUACAGUCCGACGAUCUUUAAUGUAAAUCUAAUAGUACUUGUAAUUUCUUUCUGCUUAGAAUCUAAAGAUGUGUUUAGAACCUCUUGUUUAAAAAUAAUAGACUGCUUAUCAUAAAAUCACAUCUCACACAUUUGACAACAGAGGAUUGAGCAUCA
B17: ENSG00000066933:stop:overlap|stop_codon|ENSG00000066933|stop_codon|NA|stop_codon (ssRNA)
RNA: GGGAGUUCUACAGUCCGACGAUCAUAGCUCAGAGAAUUUGAAUAUGGAGUCUGAAUAUGCUAUCUCUGAGAAAUCAGAAGCUUAGCCCUUAGCUCCCUGAAGACAGCUGGCAAGUCUGAACCUUCCAGCAAGUUGCGAAAGCACAACAGAGGAUUGAGCAUCA
B18: chr9:136477283:136477384:-|CDS|ENSG00000148396|msi1|total|mutant (ssRNA)
RNA: GGGAGUUCUACAGUCCGACGAUCGCCCCCGCAGGGUUUUCUCAGCACCCCGGUUUGCUUGUUCCUCACACACAUGCCAGAGACCGCUCUCAGGGACCCUGUGAGCCCCUGCCUGGACCUCUGACACAGCCCAGAGCACAUGCCCAACAGAGGAUUGAGCAUCA
B19: chr21:39342314:39343159:-|three_prime_utr|ENSG00000205581|control|control|control (ssRNA)
RNA: GGGAGUUCUACAGUCCGACGAUCCCCUUCUUGUACAAUCCAGAGGAAUAUUUUUAUCAACUAUUUUGUAAAUGCAAGUUUUUUAGUAGCUCUAGAAACAUUUUUAAGAAGGAGGGAAUCCCACCUCAUCCCAUUUUUUAAGUGCAACAGAGGAUUGAGCAUCA
B20: chr3:138622260:138622368:+|CDS|ENSG00000158234|unk|total|mutant (ssRNA)
RNA: GGGAGUUCUACAGUCCGACGAUCAUCCGUGGGCAAAGAAACAUUCUAUGUUGGAGCUGCAAAGACAAAAGCGACCAUAAAUACCGACGCUAUCAGUGGUUUUGCUUAUGAAUAUACUCUGGAAAUUAAUGGGAAAAGUCUCAACAACAGAGGAUUGAGCAUCA
B21: chr1:67413009:67413110:-|3pUTR|ENSG00000142864|unk|FALSE|unique (ssRNA)
RNA: GGGAGUUCUACAGUCCGACGAUCCUGAAUUUUAUCUGUUUUAAAAAUGAACUUCUCCCGCUACACAGAAGUAACAAAUAUGGUAGUCAGUUUUGUAUUUAGAAAUGUAUUGGUAGCAGGGAUGUUUUCAUAAUUUUCAGAGAUCAACAGAGGAUUGAGCAUCA
B22: chr4:75577918:75578020:-|3pUTR|ENSG00000138769|unk|FALSE|unique (ssRNA)
RNA: GGGAGUUCUACAGUCCGACGAUCGGUUGUUUAGGGAACCAGAAUUUGUGAGUUUUUUUUUUUUUUUUGCCUUAACUAAUUAAUAGUGUGUUGCUUUUUUUCCAAAGCCAUUGACUAGAACUUAGCUGAAGAAUUUAACUAGAACAACAGAGGAUUGAGCAUCA

The binders below were run against T1, UNK ZnF1-6 (called full-length) (assay: nsRBNS (natural sequence RNA bind-n-seq); RBNS binding buffer (assumed for nsRBNS): 25 mM Tris pH 7.5, 150 mM KCl, 3 mM MgCl2, 0.01% Triton X-100, 500 ug/ml BSA, 20 U/ml SUPERase-In, 4 C; UNK is unkempt and MSI1 is Musashi-1; names of the RNAs are library labels; protein concentration not given here; high values mean tight binding).
B1 showed a binding signal of 0.655 enrichment R. B2 was tested, and the binding signal was 0.962 enrichment R. For B3, the binding signal was 1.53 enrichment R. For B4, the binding signal was 0.383 enrichment R. With B5 the binding signal was 0.541 enrichment R. B6 showed a binding signal of 6.05 enrichment R. B7 showed a binding signal of 2.12 enrichment R. B8 was tested, and the binding signal was 1.09 enrichment R. B9 showed a binding signal of 2.83 enrichment R. B10 gave a binding signal of 0.66 enrichment R. B11 gave a binding signal of 0.469 enrichment R. B12 showed a binding signal of 1.66 enrichment R. Binder B13 has a binding signal of 0.73 enrichment R. B14 gave a binding signal of 0.395 enrichment R. Work on B15 yielded a binding signal of 0.865 enrichment R. B16 gave a binding signal of 10.2 enrichment R. For B17, the binding signal was 15.4 enrichment R. Binder B18 has a binding signal of 0.864 enrichment R. For B19, the binding signal was 1.97 enrichment R. B20 gave a binding signal of 0.396 enrichment R. Work on B21 yielded a binding signal of 3.09 enrichment R. With B22 the binding signal was 5.54 enrichment R.
